In PubChem BioAssay AID1345082 (National Center for Advancing Translational Sciences (NCATS), 2018):
The campaign covered roughly 94,000 compounds. About 4,000 (4.3%) were called active. The shares of active, inactive and inconclusive entries below differ from those in the screen. Calls follow the shape of the dose curve; as a rule, active = well fitted inhibition curve with a large enough effect; inconclusive = small, poorly fitted or top-dose-only effect; inactive = no such curve, though single readings can be large or run the other way. Potencies beside an inconclusive call are fits to weak or partial responses and may not hold up.

Experiment: Cytotoxic Profiling in NIH 3T3 Cell Line of Diverse Libraries Using Quantitative High-Throughput Screening; also: nearly all actives have a fitted effect of over 55% in size
Conditions: NIH 3T3 viability, CellTiter-Glo ATP luminescence, 48-72 h; activity change, negative = cytotoxicity: at 96.7 µM (top of the series); series mostly up to 96.7 µM
Procedure, shortened: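 Luminescent ATP readout (CellTiter-Glo, 10 min RT) after 48 or 72 hr compound exposure of NIH 3T3 cells seeded at 400 cells/well in 1536-well format; quantitative HTS.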
% is scaled to controls: 0 for no effect and ±100 for the full control effect; potency is read from the fitted curve at half-maximal effect; tags tell the direction and shape of the fitted curve.

| Compound | activity change, negative = cytotoxicity | Potency | outcome |
| --- | --- | --- | --- |
| COCCn1ncc(N2CCC(NC(=O)c3ccc(OC)c(F)c3)CC2)cc1=O | inactive: -10% | – | – |
| CC(=O)N1CCC(CC(=O)N2CCN(c3cc(-c4ccccc4)[nH]n3)CC2)CC1 | – | inconclusive: 50.1 µM [inhibitor, partial curve, poor fit] | – |
| Cc1cc(Cl)ccc1OCC(=O)N1CCC2(CC1)CC(O)CCO2 (centres undefined) | inactive: -8.94% | – | – |
| O=C(NC1CCN(c2cc(-c3ccc(F)cc3)[nH]n2)C1)c1ccc(Br)cc1 (centres undefined) | – | inconclusive: 44.7 µM [inhibitor, partial curve, poor fit] | – |
| CCN(C1CCOCC1)C1CN(C(=O)c2nccn2C)C1 | – | inconclusive: 50.1 µM [inhibitor, partial curve, poor fit] | – |
| CN1C[C@@H](NS(=O)(=O)Cc2ccccc2)C[C@H]1c1nc(-c2ccccc2)no1 | – | inconclusive: 89.1 µM [inhibitor, partial curve, poor fit] | – |
| COCCOCC(=O)N1CCCCCCNC(=O)[C@@H]2C[C@@H](c3nc(-c4cccnc4)no3)C[C@@H]21 | inactive: -9.42% | – | – |
| COc1ccc(S(=O)(=O)Nc2ccc(C)n(CC(=O)Nc3ccccc3)c2=O)cc1 | inactive: -2.82% | – | – |
| Cc1ccc(NC(=O)N2C[C@@H](F)C[C@H]2C(=O)N2CCc3ccccc3C2)cc1F | – | active: 35.5 µM | – |
| O=c1c2c(CO)c(-c3ccccc3)nn2ccn1CCOc1ccccc1 | – | inconclusive: 44.7 µM [inhibitor, partial curve, poor fit] | – |
| O=C(N1CCC(NS(=O)(=O)c2cccc(F)c2)CC1)N1CC2CC(C1)[C@H]1CCCC(=O)N1C2 (some centres undefined) | – | – | inactive |
| CN(C)c1cccc(-c2cnc3[nH]cc(CC(=O)N4CCOCC4)c3c2)c1 | – | inconclusive: 31.6 µM [inhibitor, partial curve, poor fit] | – |
| O=C1c2cncnc2OCC(CNC(=O)C2(c3ccccc3)CC2)N1Cc1ccccc1 (centres undefined) | – | inconclusive: 39.8 µM [inhibitor, full curve] | – |
| Cc1cc(C(=O)NC2CC2)c2c(C3CCCNC3)noc2n1 (centres undefined) | – | – | inactive |
| O=C(Nc1ccc([C@H]2OCC(=O)N(Cc3ccc(F)cc3)[C@@H]2CO)cc1)C1CC1 | inactive: -25.6% [at 174 µM] | – | – |
| CC(C)(O)CCc1cccc(C(=O)NCCCc2ccccn2)c1 | inactive: -1.41% | – | – |
| O=C(c1cnc2c(c1)N(Cc1ccccc1)CCC2)N1CC[S+](=O)([O-])CC1 | – | inconclusive: 89.1 µM [inhibitor, partial curve, poor fit] | – |
| O=C(Nc1cc(-c2ccccn2)nn1-c1ccccc1)c1ccc2ccccc2n1 | inactive: -24.3% | – | – |
| O=C(c1nc(-c2cccc(C(F)(F)F)c2)c2cnccn12)N1CCCC1 | – | inconclusive: 70.8 µM [inhibitor, partial curve, poor fit] | – |
| CC1=C[C@@H](CN2CCN(c3ncccn3)CC2)[C@H](C(C)C)C[C@H]1Cc1nnc(-c2cncn2C)o1 | – | inconclusive: 44.7 µM [inhibitor, partial curve, poor fit] | – |
| Cc1ccc(C2(O)CCN(CC(c3ccccc3)c3ccccc3)CC2)nc1 | – | inconclusive: 44.7 µM [inhibitor, partial curve, poor fit] | – |
| O=C(N[C@H]1CCN2C(=O)c3cc(/C=C/c4ccccc4)ccc3NC(=O)[C@H]12)C1CCCC1 | – | inconclusive: 126 µM [inhibitor, partial curve, poor fit] | – |

| Compound | activity change, negative = cytotoxicity | Potency | outcome |
| --- | --- | --- | --- |
| CCOc1ccc(C(=O)NC2CCCN(c3cc(-c4ccccc4)[nH]n3)C2)cc1 (centres undefined) | – | inconclusive: 44.7 µM [inhibitor, partial curve, poor fit] | – |
| Cc1noc(C)c1-c1cc(-c2ccccc2C(F)(F)F)cn2cncc12 | – | inconclusive: 56.2 µM [inhibitor, partial curve, poor fit] | – |
| CC(=O)Nc1cccc(OCc2nnc(C(=O)N3CCC[C@@H]3c3ccc(Br)cc3)n2Cc2ccccc2)c1 | – | active: 22.4 µM | – |
| CC(C)NC[C@H]1Cn2c(-c3ccc(Cl)cc3)cnc2CO1 | – | inconclusive: 100 µM [inhibitor, partial curve] | – |
| COc1ccccc1-c1ccc(C(=O)N2CCC(C(=O)NC3CC3)CC2)cc1 | inactive: -28.9% | – | – |
| CN1CCC(N2CC[C@H](c3nc4ccc(C(F)(F)F)cc4[nH]3)C2)CC1 | – | active: 89.1 µM | – |
| Cc1noc(-c2cn(C3CCN(C(=O)c4ccc[nH]4)C3)nn2)n1 (centres undefined) | inactive: -29.1% | – | – |
| O=C(NCc1cccc(F)c1)C1CCN(Cc2ccccc2-c2ccccc2F)CC1 | – | inconclusive: 50.1 µM [inhibitor, partial curve, poor fit] | – |
| O=C(Cc1ccccc1)Nc1ccnn1C1CCN(Cc2cc3ccccc3s2)CC1 | – | inconclusive: 56.2 µM [inhibitor, partial curve, poor fit] | – |
| COc1ccc(-c2cnc3n[nH]c(-c4sccc4C)c3n2)cc1OC | – | inconclusive: 20 µM [inhibitor, full curve, poor fit] | – |
| CC(C)CNC(=O)c1ccnc(-c2nnc3ccc(Nc4ccccc4)nn23)c1 | – | inconclusive: 79.4 µM [inhibitor, partial curve] | – |
| COC(=O)N1CCCC(C(=O)N2CCCC(c3nc4ncccc4[nH]3)C2)C1 (centres undefined) | inactive: -6.74% | – | – |
| COCC(=O)Nc1ccc(-c2noc([C@@H]3CCCN3CC(C)(C)C)n2)cn1 | – | inconclusive: 100 µM [inhibitor, partial curve] | – |
| CCOc1ccccc1C(=O)NCCc1noc(-c2ccccc2)n1 | – | inconclusive: 39.8 µM [inhibitor, partial curve] | – |
| Cc1cc2nc3n(c(=O)c2n1CC(=O)Nc1ccc(Cl)cc1)CCCCC3 | – | inconclusive: 50.1 µM [inhibitor, single point] | – |
| CC(C)(C)c1nnc2ccc(C(=O)N3CCOCC3)cn12 | inactive: -16.5% [at 138 µM] | – | – |
| O=C(c1ccc(Cl)cc1)N1CCC2(CC1)C(=O)NCN2CCc1ccc(Cl)cc1 | – | inconclusive: 56.2 µM [inhibitor, partial curve, poor fit] | – |
| CC(=O)Nc1ccc(NC(=O)Cn2ccn3nc4c(c3c2=O)CCCCC4)cc1 | – | inconclusive: 50.1 µM [inhibitor, partial curve, poor fit] | – |
| O=C(NCCc1ccccc1)c1ccc2oc(-c3ccncc3)nc2c1 | inactive: -31.6% | – | – |
| COc1ccc(CCNc2ncnc3c2CN(c2ccc(OC)cc2)C(=O)CN3C)cc1 | – | inconclusive: 44.7 µM [inhibitor, partial curve, poor fit] | – |
| Cc1ccc(-c2noc(C3CCCN3Cc3ccccc3)n2)nn1 (centres undefined) | inactive: -12.5% | – | – |
| O=C1COCCN1C1CCN(Cc2cccc3ccccc23)CC1 | – | inactive | – |

| Compound | activity change, negative = cytotoxicity | Potency | outcome |
| --- | --- | --- | --- |
| C[C@@H]1C(=O)O[C@H]2[C@H]1CC[C@@]1(C)Cc3sc(NC(=O)c4ccncc4)nc3[C@@H](C)[C@H]21 | – | inconclusive: 126 µM [inhibitor, single point] | – |
| O=C(C1CCCN(Cc2cccc(-c3ccsc3)c2)C1)N1CCOCC1 (centres undefined) | – | inconclusive: 70.8 µM [inhibitor, partial curve, poor fit] | – |
| O=C(c1ccc(Cl)s1)N1CCCC2(C1)Nc1cccnc1NC2=NC1CCCC1 (centres undefined) | – | inconclusive: 56.2 µM [inhibitor, partial curve, poor fit] | – |
| O=C1NCCCCCCN(Cc2cccc3[nH]ccc23)[C@H]2CCC[C@@H]12 | – | inconclusive: 50.1 µM [inhibitor, partial curve, poor fit] | – |
| O=C(NCc1ccccc1F)c1ccc2c(c1)CN(Cc1cccc(F)c1F)CCO2 | – | inconclusive: 44.7 µM [inhibitor, partial curve, poor fit] | – |
| COCCNC(=O)N1CCC(OC2CCN(Cc3ccccc3)CC2)CC1 | inactive: -6.47% | – | – |
| CC1(c2noc(-c3ccccc3)n2)CCN(C(=O)CCC(=O)N2CC(=O)Nc3ccccc32)CC1 | – | inconclusive: 50.1 µM [inhibitor, partial curve, poor fit] | – |
| Cc1ccc(-c2cc(C(=O)NCCc3ccc(F)cc3)c3cnn(C)c3n2)cc1 | inactive: -27.3% | – | – |
| O=C(C1CCCC1)N1CCN(c2ccc3nnc(C4CC4)n3n2)CC1 | inactive: -21.9% [at 138 µM] | – | – |
| CCc1nc(-c2c3n(c(=O)n(Cc4ccc(OC(F)(F)F)cc4)c2=O)CCCC3)no1 | – | inconclusive: 50.1 µM [inhibitor, partial curve, poor fit] | – |
| O=C(c1ccccc1-c1ccccc1F)N1CCCC(CO)(Cc2ccccc2F)C1 (centres undefined) | – | inconclusive: 79.4 µM [inhibitor, single point] | – |
| O=C(CCN1c2ccccc2Sc2ccccc21)N1CCCC(c2nc(C3CCOCC3)no2)C1 (centres undefined) | – | inconclusive: 28.2 µM [inhibitor, full curve, poor fit] | – |
| O=C(NC1CCN(c2cc(-c3ccc(F)cc3)[nH]n2)C1)c1cccc(Cl)c1 (centres undefined) | – | inconclusive: 44.7 µM [inhibitor, partial curve, poor fit] | – |
| Cc1noc2c(N3CCOCC3)cc(-c3cccc(C(F)(F)F)c3)nc12 | – | inconclusive: 17.8 µM [inhibitor, partial curve, poor fit] | – |
| CCc1ccc(CN2CCC3(Cc4ccccc4CNC3=O)C2)cc1 (centres undefined) | – | inconclusive: 79.4 µM [inhibitor, single point] | – |
| COc1ccc(CCC(=O)N2CCCC(Cc3noc(-c4ccccc4)n3)C2)cc1 (centres undefined) | – | inconclusive: 44.7 µM [inhibitor, partial curve, poor fit] | – |
| Cc1cc(C(F)(F)F)nn1CC(=O)N1CCc2nn(CC3CC3)c(=O)n2CC1 | – | – | inactive |
| COc1ccc(CN2C(=O)CO[C@H]3CN(C(C)C)C[C@H]32)cc1 | – | inconclusive: 28.2 µM [inhibitor, full curve, poor fit] | – |
| COc1ccccc1-c1cccc(C(=O)N2CCN(C(=O)c3ccccc3F)CC2)c1 | inactive: -24% | – | – |
| O=C(NC[C@H]1OC[C@@H](NCc2cnc[nH]2)[C@@H]1O)c1cccs1 | inactive: -3.24% [at 174 µM] | – | – |
